Measured values published in a collection of fitness landscapes (doi:10.1016/j.celrep.2020.107928).
Over roughly 81,000 sequences, “one-hybrid fitness for binding NBS DNA” has its median near -0.1; the highest 2% begin near 0.36. The list shows a part of the results.

B1: Caulobacter ParB omega fusion; a variant is named by its letters at X, in order, B8GW30 (parent)
chain: MESVVVGEPGMSEGRRGLGRGLSALLGEVDAAPAQAPGEQLGGSREAPIEILQRNPDQPRRTFREEDLEDLSNSIREKGVLQPILVRPSPDTAGEYQIVAGERAWRAAQRAGLKTVPIMVRELDDLAVLEIGIIENVQRADLNVLEEALSYKVLMEKFERTQENIAQTIGKSXSHVANXMRLLXLPDEVQSYLVSGELTAXHARAIAAAADPVALAKQIIEGGLSVRETEALARKAPNLSAGKSKGGRPPRVKDTDTQALESDLSSVLGLDVSIDHRGSTGTLTITYATLEQLDDLCNRLTRGI

Variants of: B1
Assay: one-hybrid fitness for binding NBS DNA (the Noc-binding site; scaled: cognate 1, non-cognate 0); higher = stronger binding
Details: with NBS DNA site
Method in brief: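 Bacterial one-hybrid selection in E. coli USO rpoZ- hisB- pyrF- with a HIS3 reporter carrying the site 19 bp from the promoter, screening Caulobacter ParB libraries with four specificity codons randomised (NNS). Cells grew 48 hours at 37°C on M9-minus-histidine plus 0.1 mM IPTG and 5 mM 3-AT. Plasmids before and after selection were Illumina-sequenced, three replicate libraries pooled, and variants under 10 reads dropped. Fitness is the log change in variant-to-wild-type read ratio, rescaled to cognate 1, non-cognate 0.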

Variant	one-hybrid fitness for binding NBS DNA
HYGR	≤ 0.2
QDTM	≤ 0.2
SGIK	≤ 0.2
DDHK	≤ 0.2
EAPR	0.408
RNHL	≤ 0.2
GITD	≤ 0.2
FIHR	≤ 0.2
LHMG	≤ 0.2
PSLM	≤ 0.2
KTDR	≤ 0.2
DHPH	≤ 0.2
SIRT	≤ 0.2
LAKV	≤ 0.2
QFPL	≤ 0.2
GLAL	≤ 0.2
CMNG	≤ 0.2
VSMR	≤ 0.2
PHDR	≤ 0.2
SLIL	≤ 0.2
ATSQ	≤ 0.2
RSFI	≤ 0.2
WEEG	≤ 0.2
IRSL	≤ 0.2

Variant	one-hybrid fitness for binding NBS DNA
IRLS	≤ 0.2
TTII	≤ 0.2
VSEK	≤ 0.2
TQRR	0.285
VPTG	≤ 0.2
ARHT	≤ 0.2
VIQG	≤ 0.2
RTYT	0.494
NKNY	≤ 0.2
TPKT	≤ 0.2
QWKA	≤ 0.2
KISG	≤ 0.2
VAKS	≤ 0.2
QWRI	≤ 0.2
QSFC	≤ 0.2
LAKE	≤ 0.2
LRTK	≤ 0.2
AYGG	≤ 0.2
VWYL	≤ 0.2
SIHK	≤ 0.2
MRSL	≤ 0.2
QSTG	≤ 0.2
RIVA	≤ 0.2
PPRK	≤ 0.2

Variant	one-hybrid fitness for binding NBS DNA
CHSS	≤ 0.2
QYEY	≤ 0.2
MGAE	≤ 0.2
TAVK	≤ 0.2
NKRG	≤ 0.2
RDKA	≤ 0.2
PRPS	≤ 0.2
KYNR	≤ 0.2
VHIR	≤ 0.2
VYIR	≤ 0.2
VTVK	≤ 0.2
MMRL	≤ 0.2
FHQS	≤ 0.2
PHNM	≤ 0.2
QSVH	≤ 0.2
FYPI	≤ 0.2
LIIQ	≤ 0.2
GKPR	≤ 0.2
FTAC	≤ 0.2
QRDI	≤ 0.2
TMGG	≤ 0.2
HLIM	≤ 0.2
FSQL	≤ 0.2
WWAG	≤ 0.2

Variant	one-hybrid fitness for binding NBS DNA
EAPI	≤ 0.2
QIEV	≤ 0.2
SRFW	≤ 0.2
VYGG	≤ 0.2
DPRS	≤ 0.2
FYLS	≤ 0.2
HIPY	≤ 0.2
KDCY	≤ 0.2
AVEL	≤ 0.2
QLYK	≤ 0.2
GRHT	≤ 0.2
RQVE	≤ 0.2
VSIA	≤ 0.2
CAVV	≤ 0.2
CWAG	≤ 0.2
IQLR	≤ 0.2
TVHF	≤ 0.2
LTGQ	≤ 0.2
WCLP	≤ 0.2
HESP	≤ 0.2
QPED	≤ 0.2
FFAR	≤ 0.2
PWCE	≤ 0.2
DGGG	≤ 0.2

Variant	one-hybrid fitness for binding NBS DNA
RIPW	≤ 0.2
TQRA	≤ 0.2
DLYT	≤ 0.2
NKKG	≤ 0.2
RTLT	0.461
CLTI	≤ 0.2
SPEW	≤ 0.2
FMYL	≤ 0.2
DFWG	≤ 0.2
KRLP	≤ 0.2
VGHA	≤ 0.2
GPQI	≤ 0.2
LQNF	≤ 0.2
VIKN	≤ 0.2
MDRW	≤ 0.2
TVRG	≤ 0.2
AADC	≤ 0.2
MTKT	≤ 0.2
NIHS	≤ 0.2
QRFV	0.275
GVWS	≤ 0.2
CDIT	≤ 0.2
ATKG	≤ 0.2
HLLH	≤ 0.2

Variant	one-hybrid fitness for binding NBS DNA
NPAT	≤ 0.2
MLQR	≤ 0.2
RPDI	≤ 0.2
TEPE	≤ 0.2
GHYG	≤ 0.2
GTRE	≤ 0.2
RTTK	≤ 0.2
KQNC	≤ 0.2
TKEC	≤ 0.2
NASI	≤ 0.2
HQHI	≤ 0.2
GLER	≤ 0.2
LSQA	≤ 0.2
QMST	0.457
FKCG	≤ 0.2
CETK	≤ 0.2
NYSG	≤ 0.2
FVHV	≤ 0.2
LSKD	≤ 0.2
PTLV	≤ 0.2
RLHN	≤ 0.2
TPMD	≤ 0.2
RSRI	≤ 0.2
QIYL	≤ 0.2

Variant	one-hybrid fitness for binding NBS DNA
AKNA	≤ 0.2
QNYS	≤ 0.2
QSHC	≤ 0.2
GREF	≤ 0.2
QVTS	0.257
PGTV	≤ 0.2
IIIT	≤ 0.2
MCKA	≤ 0.2
FSPG	≤ 0.2
CNSC	≤ 0.2
AWGL	≤ 0.2
AVDG	≤ 0.2
PCGF	≤ 0.2
DVRD	≤ 0.2
VSSR	≤ 0.2
HQFT	≤ 0.2
GRRW	≤ 0.2
RCKQ	0.254
HENR	≤ 0.2
RQWV	≤ 0.2
ATPL	≤ 0.2
CSDC	≤ 0.2
FNTP	≤ 0.2
TNDL	≤ 0.2

Variant	one-hybrid fitness for binding NBS DNA
CHTG	≤ 0.2
PVIN	≤ 0.2
PEWS	≤ 0.2
DVSM	≤ 0.2
RDEQ	≤ 0.2
ASTF	≤ 0.2
RLFS	≤ 0.2
ITIR	≤ 0.2
DCVK	≤ 0.2
GQRA	≤ 0.2
PIPG	≤ 0.2
KYDG	≤ 0.2
HMGT	≤ 0.2
NANT	≤ 0.2
KRVD	≤ 0.2
PFAL	≤ 0.2
LTVC	≤ 0.2
RQKR	0.752
ELQT	≤ 0.2
RNEA	≤ 0.2
TTYY	≤ 0.2
ICTY	≤ 0.2
ARVT	≤ 0.2
KRCG	≤ 0.2

Variant	one-hybrid fitness for binding NBS DNA
SVDS	≤ 0.2
CLQY	≤ 0.2
RKIK	≤ 0.2
LGKK	≤ 0.2
KHKS	≤ 0.2
QHAN	≤ 0.2
YVNT	≤ 0.2
VASE	≤ 0.2
TIQR	≤ 0.2
NYGG	≤ 0.2
DDLT	≤ 0.2
SLDL	≤ 0.2
NQHL	≤ 0.2
VWNT	≤ 0.2
WIFR	≤ 0.2
KTLF	≤ 0.2
QWLD	≤ 0.2
KFTK	≤ 0.2
TTAG	≤ 0.2
MSKG	≤ 0.2
WDNC	≤ 0.2
TNPA	≤ 0.2
NHYT	≤ 0.2
CGLC	≤ 0.2

Variant	one-hybrid fitness for binding NBS DNA
PPNA	≤ 0.2
GYSF	≤ 0.2
DIAG	≤ 0.2
QNFG	≤ 0.2
MITK	≤ 0.2
KIFS	≤ 0.2
GPKS	≤ 0.2
AFHT	≤ 0.2
KNLT	≤ 0.2
MFKE	≤ 0.2
IPRL	≤ 0.2
LMRI	≤ 0.2
FGAE	≤ 0.2
EETS	≤ 0.2
RSWQ	≤ 0.2
LYEL	≤ 0.2
AIFN	≤ 0.2
KTCA	≤ 0.2
CAQW	≤ 0.2
VYVC	≤ 0.2
NRRT	≤ 0.2
DDLM	≤ 0.2
VSAF	≤ 0.2
QLDH	≤ 0.2

Variant	one-hybrid fitness for binding NBS DNA
ASEV	≤ 0.2
RNPH	≤ 0.2
PANH	≤ 0.2
HFGS	≤ 0.2
THPA	≤ 0.2
APGI	≤ 0.2
SYTY	≤ 0.2
IEVV	≤ 0.2
AHEQ	≤ 0.2
MKGR	≤ 0.2
PSCL	≤ 0.2
VNCL	≤ 0.2
NGDR	≤ 0.2
QGKK	≤ 0.2
CWRR	≤ 0.2
LKDT	≤ 0.2
NCKE	≤ 0.2
QFAP	≤ 0.2
NLIM	≤ 0.2
RGWR	≤ 0.2
RCDT	0.266
RYAT	0.461
PDLW	≤ 0.2
GVIS	≤ 0.2

Variant	one-hybrid fitness for binding NBS DNA
FDYR	≤ 0.2
GEFN	≤ 0.2
IEVS	≤ 0.2
PCVF	≤ 0.2
NPLG	≤ 0.2
IIDG	≤ 0.2
TGPQ	≤ 0.2
PWLD	≤ 0.2
KATI	≤ 0.2
FATT	≤ 0.2
LMCG	≤ 0.2
HNEA	≤ 0.2
CCTS	≤ 0.2
KPHR	≤ 0.2
GLRT	≤ 0.2
CVTF	≤ 0.2
QCHE	≤ 0.2
TFLA	≤ 0.2
CSMR	≤ 0.2
LISL	≤ 0.2
LIDG	≤ 0.2
PCPR	≤ 0.2
PAQG	≤ 0.2
LDLG	≤ 0.2

Variant	one-hybrid fitness for binding NBS DNA
TIVR	≤ 0.2
CTMG	≤ 0.2
PCHF	≤ 0.2
RRSC	0.291
VAVL	≤ 0.2
ASYE	≤ 0.2
DNAS	≤ 0.2
SRAR	≤ 0.2
PFQS	≤ 0.2
DQTI	≤ 0.2
EIQV	≤ 0.2
KWVW	≤ 0.2
MINS	≤ 0.2
SVIM	≤ 0.2
VFIS	≤ 0.2
YSFT	≤ 0.2
FAYY	≤ 0.2
QLIR	0.294
